Test results published in PubChem BioAssay AID463173 (ICCB-Longwood Screening Facility, Harvard Medical School, 2010).
The whole screen tested about 52,000 compounds, of which about 1,700 (3.3%) were called active. Cut-off read from the data, not from the text of the source: active = survival mostly below about 52% (no sharp cut-off); inactive = mostly above about 56%. Some of the results follow.

Test system: Wild type
Assay: growth inhibition of S. aureus wild type versus tarO mutant, primary screen, teichoic acid synthesis inhibitors, RN4220, OD600 (AID 463173)
Conditions: S. aureus RN4220 wild type/DeltatarO growth, OD600, 18 h, active compounds read low, screened at 18.75 µg/mL (by protocol)

Structure (SMILES) | survival
C=CCn1c(N)cc(=O)nc1SCC(=O)NC(C)c1ccccc1 (stereo not drawn) | inactive: 108%
O=C(CN1CCN(Cc2ccc(F)cc2)C1=O)NCc1ccccc1Cl | inactive: 75%
COc1cccc(-c2nn(C)c3sc(C(=O)NCc4cc(OC)ccc4OC)cc23)c1 | inactive: 85%
Cc1cc(C)c(S(=O)(=O)Nc2ccc(-c3ccc(N4CCC(C)CC4)nn3)cc2)cc1C | inactive: 67%
Cc1cccc(C)c1Nc1c(-c2ccccc2F)nc2cccc(C)n12 | active: 7%
CC(C)CCNC(=O)C1CCN(Cc2ccccc2O)CC1 | inactive: 102%
C=CCNC(=O)c1cc2c(=O)n3cccc(C)c3nc2n(CCN2CCOCC2)c1=N | inactive: 106%
COc1ccc(OCC(=O)Nc2nnc(S(=O)(=O)N3CCc4ccccc43)s2)cc1 | inactive: 73%
CCCCN(CC)CCNC(=O)c1c(C)oc2ncnc(N3CCOCC3)c12 | inactive: 76%
CCOc1ccc(C(=O)/C=C/c2cn(CC(O)CN3CCCCCC3)c3ccccc23)cc1 (stereo not drawn) | active: 26%
Cc1ccccc1C(=O)Nc1cc2c(cc1N1CCOCC1)n(C)c(=O)n2C | inactive: 79%
CCOC(=O)c1ccccc1NC(=O)C1CCN(c2ncnc3c2nc2n3CCCCC2)CC1 | inactive: 83%
CCC1(C)CC(=O)c2c(ccc3oc(C(=O)NCc4ccccc4)c(C)c23)O1 (stereo not drawn) | inactive: 36%
Cc1ccc2oc3c(c(=O)c2c1)C(c1ccc(O)cc1)N(Cc1ccc2c(c1)OCO2)C3=O (stereo not drawn) | inactive: 89%
CCOc1ccc(C(=O)c2cn(CC(=O)Nc3ccc(OC)cc3)c3cc4c(cc3c2=O)OCCO4)cc1 | inactive: 88%
O=C(NCCC1=CCCCC1)C1CCN(C(=O)Cc2ccccc2)CC1 | inactive: 114%
COc1ccc2[nH]c(=O)c(CN(C(=O)c3cccc(Cl)c3)c3ccccc3C)cc2c1 | inactive: 84%
CC1CN(c2ccc(Cl)cc2)c2nc3c(c(=O)n(CC(=O)O)c(=O)n3C)n2C1 (stereo not drawn) | inactive: 73%
COc1ccc2occ(CC(=O)Nc3ccc(S(=O)(=O)Nc4nccc(C)n4)cc3)c2c1 | inactive: 83%
Cc1ccc(CNC(=O)c2sc3nc[nH]c(=O)c3c2C)cc1 | inactive: 127%
Cc1cc2nnc(SCc3ccc(F)cc3)n2c2ccccc12 | active: -2%
CC(C)CCn1c(=O)c2cccnc2n(CC(=O)Nc2ccc(F)cc2)c1=O | inactive: 73%

Structure (SMILES) | survival
COc1cccc(-c2cc(C(=O)Nc3c(C)nn(Cc4ccccc4Cl)c3C)no2)c1 | inactive: 71%
CN1CCN(C2(CNC(=O)c3ccc(C(C)(C)C)cc3)CCCCC2)CC1 | inactive: 85%
C#CCn1c(C2CC(=O)N(c3ccc(OC)cc3)C2)nc2ccccc21 (stereo not drawn) | inactive: 82%
COc1cccc(CNC(=O)Cn2c(=O)ccc3cc(S(=O)(=O)N4CCC(C)CC4)ccc32)c1 | inactive: 80%
COc1cccc(C(=O)NCc2ccc3c(c2)CCN3C(=O)c2ccncc2)c1 | inactive: 69%
COc1ccc(-n2c3c(c(=O)[nH]c2=O)C(NC(=O)c2ccccc2Cl)(C(F)(F)F)C(=O)N3)cc1 (stereo not drawn) | inactive: 67%
COc1ccccc1-c1nc(SCC(=O)c2ccccc2)n[nH]1 | inactive: 77%
COc1ccc(-c2[nH]c(-c3cccc(OC)c3)nc2SCC(=O)Nc2ccc3c(c2)OCO3)cc1 | inactive: 67%
Cc1ccc2[nH]c3c(=O)n(N)c(C)nc3c2c1 | inactive: 115%
COc1ccc(CNc2nc(SCc3ccc(Cl)cc3)nc3ccccc23)cc1 | inactive: 81%
Cn1cccc1/C=N/NC(=O)c1ccccn1 | inactive: 105%
CCCCCN1C(C(=O)c2ccccc2)=C(NC(=O)c2ccc(OC)cc2)c2ccccc2S1(=O)=O | inactive: 68%
O=C(Nc1ccc(C(=O)N2CCN(c3cccc(Cl)c3)CC2)cc1)c1nsc2ccccc12 | inactive: 63%
COc1ccc(NC(=O)c2ccc(-c3nc(CSc4ccc(C)cc4)c(C)o3)cc2)cc1Cl | inactive: 57%
COc1ccc(-c2c3c(=O)n(C)c(=O)n(C)c3c3n2-c2ccccc2NC3c2ccc(OC)cc2)cc1 (stereo not drawn) | active: 8%
Cc1ccc(NC(=O)c2cc(S(=O)(=O)N(C)C3CCCCC3)ccc2F)cc1C | inactive: 53%
COc1ccccc1C(=O)Oc1c(Sc2ccccc2)c(C)nn1C(C)(C)C | inactive: 86%
CC(C)N(C(=O)N1CCC(c2ccccc2F)CC1)C(C)C | inactive: 94%
CCc1nnc(NC(=O)c2nc(S(=O)(=O)Cc3ccc(C)cc3)ncc2Cl)s1 | inactive: 57%
O=C(c1ccc(N2CCOCC2)cc1)c1cccs1 | inactive: 105%
COC(=O)c1ccc(CSc2nc(-c3ccco3)cc(C(F)(F)F)n2)o1 | inactive: 116%
CCC(=O)N1CCc2cc(S(=O)(=O)NC(C(=O)NCCc3ccccc3)C(C)C)ccc21 (stereo not drawn) | inactive: 83%

Structure (SMILES) | survival
Cc1cc(C)c(NC(=O)C(C)n2c(=O)c(C(F)(F)F)nc3ccccc32)c(C)c1 (stereo not drawn) | inactive: 69%
Cc1cccc(-n2ncc(C(=O)N3CCN(C4CCCCC4)CC3)c2C2CCN(C(=O)OC(C)(C)C)CC2)c1 | inactive: 78%
COc1ccc(OC)c2sc(NC(=O)c3ccc(S(=O)(=O)N4CCCC4)cc3)nc12 | inactive: 128%
CCOC(=O)CC(NC(=O)CCc1c(C)nc2c(c(C)nn2-c2ccc(C)c(C)c2)c1C)c1ccc(C)cc1 (stereo not drawn) | inactive: 123%
Cc1cc(C)cc(OCC(=O)Nc2nc3c(s2)CC(C(C)(C)C)CC3)c1 (stereo not drawn) | inactive: 108%
Cc1c(Cl)cccc1NC(=O)c1cccc(NC(=O)N2CCSc3ncccc32)c1 | inactive: 59%
CC(NC(=O)c1ccc2c(c1)CCN2S(C)(=O)=O)c1ccccc1 (stereo not drawn) | inactive: 85%
CCOc1ccc(NC(=O)CSC2=Nc3ccccc3C3=NC(CCC(=O)NCc4ccccc4)C(=O)N23)cc1 (stereo not drawn) | inactive: 88%
Cc1ccc(CNC(=O)c2ccc3c(c2)nc(C)n3-c2cccc(F)c2)cc1 | inactive: 91%
Cc1cc(C(F)(F)F)n2nc(-c3ccc(Br)cc3)cc2n1 | inactive: 78%
c1ccc(C(c2nnnn2C2CCCC2)N2CCN(c3ccccc3)CC2)cc1 (stereo not drawn) | inactive: 108%
CCCCOc1ccc(-c2nn(-c3ccccc3)cc2C2NC(=O)NC(C)=C2C(=O)OCC)cc1 (stereo not drawn) | inactive: 73%
CN1CCN(CC(=O)NCCc2ccc(F)cc2)CC1 | inactive: 105%
O=C(c1cc2ccccc2oc1=O)N1CCN(c2ccc(Cl)cc2)CC1 | inactive: 71%
O=C(NCCc1ccccc1)c1cnc2sc(N3CCCCCC3)nn2c1=O | inactive: 72%
Cc1cc2oc(C(=O)Nc3ccc(S(N)(=O)=O)cc3)cc(=O)c2cc1C | inactive: 84%
CCc1ccc(C(=O)c2cn(CC(=O)Nc3cccc(OC)c3)c3ccc(OC)cc3c2=O)cc1 | inactive: 77%
COc1ccc(OCC(=O)NCc2ccc3c(c2)CCN3C(=O)c2ccccc2)cc1 | inactive: 81%
COc1ccccc1N1CCN(c2ncnc3c2cnn3-c2cc(Cl)ccc2C)CC1 | inactive: 136%
Cc1ccc(C(=O)N2c3ccc(C)cc3C(C)(c3ccccc3)CC2(C)C)cc1 (stereo not drawn) | active: 2%
CCc1cccc(NC(=O)CN2C(=O)COc3ccc(S(=O)(=O)Nc4ccccc4)cc32)c1 | inactive: 72%
Cc1ccc(CSc2nc3ccc(NC(=O)COc4ccccc4)cc3s2)cc1 | inactive: 88%

Structure (SMILES) | survival
CCOC(=O)c1ccc(N2C(=O)c3[nH]nc(-c4ccc(C)cc4)c3C2c2cccc(F)c2)cc1 (stereo not drawn) | inactive: 88%
O=C1OC(C(=O)Nc2cccc(Br)c2)Cc2ccccc21 (stereo not drawn) | inactive: 84%
COc1ccc(CNC(=O)Cn2c(SCC(=O)Nc3ccc(OC)cc3)nc3ccccc32)cc1 | inactive: 69%
Cc1cccc(-n2ncc(C(=O)N3CCN(c4ccc(Cl)cc4)CC3)c2C2CCN(C(=O)OC(C)(C)C)CC2)c1 | inactive: 105%
Cn1nc(C(=O)NCc2ccc(Cl)cc2)c2c1-c1ccccc1S(=O)(=O)C2 | inactive: 87%
Cc1ccc(OCc2nc(-c3ccc(C(=O)N4CCN(c5ccccc5F)CC4)cc3)oc2C)cc1 | inactive: 71%
CCNC(=S)N1CCC(C(=O)c2ccc(Cl)cc2)CC1 | inactive: 96%
COc1ccc(C2C(C#N)=C(N)Oc3c2ccc2cccnc32)cc1 (stereo not drawn) | inactive: 106%
COc1ccc(OC)c(CNC(=O)c2cc3c(-c4ccc(OC)c(OC)c4)nn(C)c3s2)c1 | inactive: 80%
CCc1ccc2nc(N(CCN(CC)CC)C(=O)c3ccco3)sc2c1 | inactive: 53%
Cc1ccc(NC(=O)c2ccc(-c3cccc(Cl)c3C)o2)cc1 | active: 1%
CCCCCn1c(=O)[nH]c2cc(C(=O)Nc3cc(C)cc(C)c3)ccc2c1=O | inactive: 68%
CN(C)S(=O)(=O)N(CC(=O)NCCSCc1ccccc1)c1ccccc1 | inactive: 68%
C=CCNC(=O)CSc1nc(-c2ccco2)cc(C(F)(F)F)n1 | inactive: 107%
CC[n+]1c(C)oc2ccc(OC)cc21 | inactive: 95%
COc1ccc(Cl)cc1NC(=O)c1cc(S(=O)(=O)NC2CCCCCC2)ccc1F | inactive: 83%
Cc1ccc(C)c(NC(=O)CN2CCCN(Cc3cccc(Cl)c3)S2(=O)=O)c1 | inactive: 76%
Cc1cccc(N2C(=O)N(CC(=O)C(C)(C)C)c3ccccc3S2(=O)=O)c1C | inactive: 55%
Cc1cc(OC(C)C(=O)Nc2c(C(=O)c3ccc(F)cc3)oc3ccccc23)ccc1Cl (stereo not drawn) | inactive: 68%
Cc1cccc(NC(=O)CSc2cn(CC(=O)N3CCCCCC3)c3ccccc23)c1 | inactive: 107%
CCc1ccc(Sc2cc(C(=O)NCc3ccccc3OC)c3ccccc3n2)cc1 | inactive: 68%
CCOc1ccc(N2CC(NC(=O)C(=O)c3c[nH]c4ccccc34)CC2=O)cc1 (stereo not drawn) | inactive: 93%
